# Experimental data as given in the supplement of paper PMC8728848.
# The list shows a part of the results.
# Columns and labels:
# Assay in all cases: glycan array binding signal (z-score within array); higher = stronger binding
# Conditions in all cases: glycan notation: IUPAC condensed, linker removed; mutation: H59Q
# [1] = biological target: Gal(b1-4)GlcNAc(b1-2)[Gal(b1-4)GlcNAc(b1-6)]Man(a1-6)[Gal(b1-4)GlcNAc(b1-2)Man(a1-3)]Man(b1-4)GlcNAc(b1-4)[Fuc(a1-6)]GlcNAc
# How it was run: (§1)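 Glycan array data came from 3228 arrays in the Consortium for Functional Glycomics database, and only arrays with an available protein sequence were kept. Glycan names were put into IUPAC-condensed notation, and columns mapping to the same glycan were averaged. The binding signal is a within-array Z-score, averaged across arrays of one protein sequence run at different concentrations or buffers and across linkers. A negative Z-score can be read as non-binding.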
# [2] = biological target: Gal(b1-4)GlcNAc(b1-2)[Gal(b1-4)GlcNAc(b1-6)]Man(a1-6)[GlcNAc(b1-4)][Gal(b1-4)GlcNAc(b1-2)Man(a1-3)]Man(b1-4)GlcNAc(b1-4)GlcNAc
# How it was run: as §1
# [3] = biological target: Gal(b1-4)GlcNAc(b1-2)[Gal(b1-4)GlcNAc(b1-6)]Man(a1-6)[GlcNAc(b1-4)][Gal(b1-4)GlcNAc(b1-2)[Gal(b1-4)GlcNAc(b1-4)]Man(a1-3)]Man(b1-4)GlcNAc(b1-4)[Fuc(a1-6)]GlcNAc
# How it was run: as §1
# [4] = biological target: Gal(b1-4)GlcNAc(b1-3)Gal(b1-3)GalNAc
# How it was run: as §1
# [5] = biological target: Gal(b1-4)GlcNAc(b1-3)Gal(b1-3)GlcNAc
# How it was run: as §1
# [6] = biological target: Gal(b1-4)GlcNAc(b1-3)Gal(b1-4)Glc
# How it was run: as §1
# [7] = biological target: Gal(b1-4)GlcNAc(b1-3)Gal(b1-4)GlcNAc
# How it was run: as §1
# [8] = biological target: Gal(b1-4)GlcNAc(b1-3)Gal(b1-4)GlcNAc(b1-2)Man(a1-3)[Gal(b1-4)GlcNAc(b1-3)Gal(b1-4)GlcNAc(b1-2)Man(a1-6)]Man(b1-4)GlcNAc(b1-4)GlcNAc
# How it was run: as §1
# [9] = biological target: Gal(b1-4)GlcNAc(b1-3)Gal(b1-4)GlcNAc(b1-2)Man(a1-3)[Gal(b1-4)GlcNAc(b1-3)Gal(b1-4)GlcNAc(b1-2)Man(a1-6)]Man(b1-4)GlcNAc(b1-4)[Fuc(a1-6)]GlcNAc
# How it was run: as §1
# [10] = biological target: Gal(b1-4)GlcNAc(b1-3)Gal(b1-4)GlcNAc(b1-2)[Gal(b1-4)GlcNAc(b1-3)Gal(b1-4)GlcNAc(b1-6)]Man(a1-6)[Gal(b1-4)GlcNAc(b1-3)Gal(b1-4)GlcNAc(b1-2)Man(a1-3)]Man(b1-4)GlcNAc(b1-4)GlcNAc
# How it was run: as §1
# [11] = biological target: Gal(b1-4)GlcNAc(b1-3)Gal(b1-4)GlcNAc(b1-2)[Gal(b1-4)GlcNAc(b1-3)Gal(b1-4)GlcNAc(b1-6)]Man(a1-6)[Gal(b1-4)GlcNAc(b1-3)Gal(b1-4)GlcNAc(b1-2)Man(a1-3)]Man(b1-4)GlcNAc(b1-4)[Fuc(a1-6)]GlcNAc
# How it was run: as §1
# [12] = biological target: Gal(b1-4)GlcNAc(b1-3)Gal(b1-4)GlcNAc(b1-3)Gal(b1-4)GlcNAc
# How it was run: as §1
# [13] = biological target: Gal(b1-4)GlcNAc(b1-3)Gal(b1-4)GlcNAc(b1-3)Gal(b1-4)GlcNAc(b1-2)Man(a1-3)[Gal(b1-4)GlcNAc(b1-3)Gal(b1-4)GlcNAc(b1-3)Gal(b1-4)GlcNAc(b1-2)Man(a1-6)]Man(b1-4)GlcNAc(b1-4)GlcNAc
# How it was run: as §1
# [14] = biological target: Gal(b1-4)GlcNAc(b1-3)Gal(b1-4)GlcNAc(b1-3)Gal(b1-4)GlcNAc(b1-2)Man(a1-3)[Gal(b1-4)GlcNAc(b1-3)Gal(b1-4)GlcNAc(b1-3)Gal(b1-4)GlcNAc(b1-2)Man(a1-6)]Man(b1-4)GlcNAc(b1-4)[Fuc(a1-6)]GlcNAc
# How it was run: as §1
# [15] = biological target: Gal(b1-4)GlcNAc(b1-3)Gal(b1-4)GlcNAc(b1-3)Gal(b1-4)GlcNAc(b1-2)[Gal(b1-4)GlcNAc(b1-3)Gal(b1-4)GlcNAc(b1-3)Gal(b1-4)GlcNAc(b1-6)]Man(a1-6)[Gal(b1-4)GlcNAc(b1-3)Gal(b1-4)GlcNAc(b1-3)Gal(b1-4)GlcNAc(b1-2)Man(a1-3)]Man(b1-4)GlcNAc(b1-4)[Fuc(a1-6)]GlcNAc
# How it was run: as §1
# [16] = biological target: Gal(b1-4)GlcNAc(b1-3)Gal(b1-4)GlcNAc(b1-3)Gal(b1-4)GlcNAc(b1-3)Gal(b1-4)GlcNAc(b1-2)Man(a1-3)[Gal(b1-4)GlcNAc(b1-3)Gal(b1-4)GlcNAc(b1-3)Gal(b1-4)GlcNAc(b1-3)Gal(b1-4)GlcNAc(b1-2)Man(a1-6)]Man(b1-4)GlcNAc(b1-4)GlcNAc
# How it was run: as §1
# [17] = biological target: Gal(b1-4)GlcNAc(b1-3)Gal(b1-4)GlcNAc(b1-3)Gal(b1-4)GlcNAc(b1-3)Gal(b1-4)GlcNAc(b1-2)Man(a1-3)[Gal(b1-4)GlcNAc(b1-3)Gal(b1-4)GlcNAc(b1-3)Gal(b1-4)GlcNAc(b1-3)Gal(b1-4)GlcNAc(b1-2)Man(a1-6)]Man(b1-4)GlcNAc(b1-4)[Fuc(a1-6)]GlcNAc
# How it was run: as §1
# [18] = biological target: Gal(b1-4)GlcNAc(b1-3)Gal(b1-4)GlcNAc(b1-3)Gal(b1-4)GlcNAc(b1-3)Gal(b1-4)GlcNAc(b1-2)[Gal(b1-4)GlcNAc(b1-3)Gal(b1-4)GlcNAc(b1-3)Gal(b1-4)GlcNAc(b1-3)Gal(b1-4)GlcNAc(b1-6)]Man(a1-6)[Gal(b1-4)GlcNAc(b1-3)Gal(b1-4)GlcNAc(b1-3)Gal(b1-4)GlcNAc(b1-3)Gal(b1-4)GlcNAc(b1-2)Man(a1-3)]Man(b1-4)GlcNAc(b1-4)[Fuc(a1-6)]GlcNAc
# How it was run: as §1
# [19] = biological target: Gal(b1-4)GlcNAc(b1-3)Gal(b1-4)GlcNAc(b1-3)Gal(b1-4)GlcNAc(b1-3)Gal(b1-4)GlcNAc(b1-3)Gal(b1-4)GlcNAc(b1-2)Man(a1-3)[Gal(b1-4)GlcNAc(b1-3)Gal(b1-4)GlcNAc(b1-3)Gal(b1-4)GlcNAc(b1-3)Gal(b1-4)GlcNAc(b1-3)Gal(b1-4)GlcNAc(b1-2)Man(a1-6)]Man(b1-4)GlcNAc(b1-4)GlcNAc
# How it was run: as §1
# [20] = biological target: Gal(b1-4)GlcNAc(b1-3)Gal(b1-4)GlcNAc(b1-3)Gal(b1-4)GlcNAc(b1-3)Gal(b1-4)GlcNAc(b1-3)Gal(b1-4)GlcNAc(b1-2)Man(a1-3)[Gal(b1-4)GlcNAc(b1-3)Gal(b1-4)GlcNAc(b1-3)Gal(b1-4)GlcNAc(b1-3)Gal(b1-4)GlcNAc(b1-3)Gal(b1-4)GlcNAc(b1-2)Man(a1-6)]Man(b1-4)GlcNAc(b1-4)[Fuc(a1-6)]GlcNAc
# How it was run: as §1
# [21] = biological target: Gal(b1-4)GlcNAc(b1-3)Gal(b1-4)GlcNAc(b1-3)Gal(b1-4)GlcNAc(b1-3)Gal(b1-4)GlcNAc(b1-3)Gal(b1-4)GlcNAc(b1-2)[Gal(b1-4)GlcNAc(b1-3)Gal(b1-4)GlcNAc(b1-3)Gal(b1-4)GlcNAc(b1-3)Gal(b1-4)GlcNAc(b1-3)Gal(b1-4)GlcNAc(b1-6)]Man(a1-6)[Gal(b1-4)GlcNAc(b1-3)Gal(b1-4)GlcNAc(b1-3)Gal(b1-4)GlcNAc(b1-3)Gal(b1-4)GlcNAc(b1-3)Gal(b1-4)GlcNAc(b1-2)Man(a1-3)]Man(b1-4)GlcNAc(b1-4)[Fuc(a1-6)]GlcNAc
# How it was run: as §1
# [22] = biological target: Gal(b1-4)GlcNAc(b1-3)Gal(b1-4)GlcNAc(b1-3)Gal(b1-4)GlcNAc(b1-3)Gal(b1-4)GlcNAc(b1-3)Gal(b1-4)GlcNAc(b1-3)Gal(b1-4)GlcNAc(b1-2)Man(a1-3)[Gal(b1-4)GlcNAc(b1-3)Gal(b1-4)GlcNAc(b1-3)Gal(b1-4)GlcNAc(b1-3)Gal(b1-4)GlcNAc(b1-3)Gal(b1-4)GlcNAc(b1-3)Gal(b1-4)GlcNAc(b1-2)Man(a1-6)]Man(b1-4)GlcNAc(b1-4)GlcNAc
# How it was run: as §1
# [23] = biological target: Gal(b1-4)GlcNAc(b1-3)Gal(b1-4)GlcNAc(b1-3)GalNAc
# How it was run: as §1
binder,measurement,setting,value
"rAAL-H59Q (Agrocybe aegerita), Q6WY08 (protein) MQGVNIYNISAGTSVDLAAPVTTGDIVTFFSSALNLNAGAGNPNNTTLNLFAENGAYLLQIAFRLQENVIIFNSRQPDGPWLVEQRVSDVANQFAGIDGKAMVTVFDHGDKYQVVINEKTVIQYTKQISGLTLSLSYNATEETSIFSTVVEAVTYTGLALEHHHHHH",glycan array binding signal (z-score),[1],-0.016
same,glycan array binding signal (z-score),[2],-0.134
same,glycan array binding signal (z-score),[3],-0.097
same,glycan array binding signal (z-score),[4],-0.179
same,glycan array binding signal (z-score),[5],-0.091
same,glycan array binding signal (z-score),[6],-0.055
same,glycan array binding signal (z-score),[7],-0.121
same,glycan array binding signal (z-score),[8],-0.11
same,glycan array binding signal (z-score),[9],-0.015
same,glycan array binding signal (z-score),[10],-0.088
same,glycan array binding signal (z-score),[11],-0.002
same,glycan array binding signal (z-score),[12],-0.126
same,glycan array binding signal (z-score),[13],-0.073
same,glycan array binding signal (z-score),[14],-0.075
same,glycan array binding signal (z-score),[15],-0.046
same,glycan array binding signal (z-score),[16],-0.087
same,glycan array binding signal (z-score),[17],0.057
same,glycan array binding signal (z-score),[18],0.041
same,glycan array binding signal (z-score),[19],0.018
same,glycan array binding signal (z-score),[20],-0.067
same,glycan array binding signal (z-score),[21],0.012
same,glycan array binding signal (z-score),[22],-0.085
same,glycan array binding signal (z-score),[23],-0.093
